Reference: patent publication US20250236654A1, “C-TYPE NATRIURETIC PEPTIDE ENGRAFTED ANTIBODIES” (Bayer Aktiengesellschaft, priority 2018, published 2025)

Target: T1, human NPRA (hNPRA) (Homo sapiens, UniProt P16066)
T1 construct: expressed in transfected cells
T1 sequence (P16066 33-1061): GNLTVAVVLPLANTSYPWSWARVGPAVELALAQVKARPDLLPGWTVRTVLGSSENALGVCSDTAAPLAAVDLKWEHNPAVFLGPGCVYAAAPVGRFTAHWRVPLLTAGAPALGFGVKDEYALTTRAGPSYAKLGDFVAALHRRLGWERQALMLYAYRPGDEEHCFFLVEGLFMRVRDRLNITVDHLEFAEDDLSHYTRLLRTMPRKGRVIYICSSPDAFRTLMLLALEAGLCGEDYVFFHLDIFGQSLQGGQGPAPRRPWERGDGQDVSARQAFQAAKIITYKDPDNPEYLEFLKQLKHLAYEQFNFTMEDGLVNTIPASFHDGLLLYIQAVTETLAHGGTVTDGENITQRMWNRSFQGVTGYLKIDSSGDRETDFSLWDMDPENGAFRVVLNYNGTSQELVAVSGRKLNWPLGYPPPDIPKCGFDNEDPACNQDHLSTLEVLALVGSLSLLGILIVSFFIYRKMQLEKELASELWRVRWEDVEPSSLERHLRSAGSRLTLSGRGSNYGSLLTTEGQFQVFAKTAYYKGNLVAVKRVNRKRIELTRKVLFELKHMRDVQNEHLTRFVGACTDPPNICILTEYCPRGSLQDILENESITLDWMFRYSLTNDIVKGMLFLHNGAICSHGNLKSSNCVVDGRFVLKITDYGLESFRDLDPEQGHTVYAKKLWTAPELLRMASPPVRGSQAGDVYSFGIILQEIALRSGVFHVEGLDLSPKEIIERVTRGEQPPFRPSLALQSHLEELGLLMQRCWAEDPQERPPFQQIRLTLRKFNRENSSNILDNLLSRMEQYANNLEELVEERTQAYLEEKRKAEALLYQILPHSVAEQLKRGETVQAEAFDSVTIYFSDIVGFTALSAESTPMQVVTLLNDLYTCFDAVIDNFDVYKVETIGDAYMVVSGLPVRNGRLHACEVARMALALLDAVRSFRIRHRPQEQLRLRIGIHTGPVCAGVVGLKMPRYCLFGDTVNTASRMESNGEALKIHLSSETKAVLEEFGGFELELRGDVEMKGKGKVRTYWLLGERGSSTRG
Assay: cGMP quantification assay (HTRF) on stable hNPRA-CHO k1 cells (rcs, ics, pcs samples)
Format: cell-based
Conditions: raw compound samples (rcs) on stable hNPRA-CHO k1 cells; reference TPP-5661 (#117) gives 36%; n.a. = not active
Outline: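 CHO k1 cells stably expressing human NPRA; stimulated cGMP quantified by competitive HTRF (signal inversely proportional to cGMP). Raw samples screened at two concentrations (5-fold apart) vs reference TPP-5661; isolated (80–0.13 nM, 2.5-fold) and purified samples fitted for EC50, reported as delta log EC50 vs TPP-5661; quadruplicates.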

B1: TPP-5657: “empty” antibody without natriuretic peptide, SEQ ID NO 65 and SEQ ID NO 66; negative control (antibody, listed as Homo sapiens)
heavy: [letters of about 100 residues left out]LTGAEYFQHWGQGTLVTVSS[letters of human IgG1 constant region left out]
light: QSVLTQPPSVSGAPGQRVTISCTGSSSNIGAGYDVHWYQQLPGTAPKLLIYGNSNRPSGVPDRFSGSKSGTSASLAITGLQAEDEADYYCQSYDSSLSGVVFGGGTKLTVLGQPKAAPSVTLFPPSSEELQANKATLVCLISDFYPGAVTVAWKADSSPVKAGVETTTPSKQSNNKYAASSYLSLTPEQWKSHRSYSCQVTHEGSTVEKTVAPTECS
  activity rcs: n.a. (Res signals less than half of the signal of the reference compound TPP-5661 (36%) were assessed as not active (n.a.))
